According to PubChem BioAssay AID686978 (National Center for Advancing Translational Sciences (NCATS), 2013):
Hit rate of the full screen: of about 420,000 compounds, about 64,000 (15%) were called active. Inconclusive means that the source gave no clear call. Such entries were picked first, then a sample of the others. The call rests on the fitted dose curve; in most records, active means well fitted inhibition curve with a large enough effect; inconclusive means small, poorly fitted or top-dose-only effect; inactive means flat fitted curve, though single readings scatter. No potency is given beside an inconclusive call; the fits are too rough.

Assay: qHTS for Inhibitors of human tyrosyl-DNA phosphodiesterase 1 (TDP1): qHTS in cells in absence of CPT; further: nearly all actives have a fitted effect of over 55% in size
Conditions: DT40 Tdp1-/- hTDP1 cells, no CPT, ATP luminescence, 48 h; activity change, negative = growth inhibition: at 46.2 µM (top of the series) unless noted
How it was run: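 Seeded 400 DT40-hTDP1 cells/well (vehicle DMSO, no 20 nM CPT); pinned compounds; ≥48 hr at 37 °C; CellTiter-Glo luminescence as viability measure.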
On the % scale 0 is the no-effect control and ±100 the full control effect; potency means the concentration at half of the fitted maximal effect; tags describe the fitted curve by direction and shape.

Structure (SMILES)	Potency	activity change, negative = growth inhibition
COc1ccccc1NC(=O)c1sc2nc(C)c(C(=O)Nc3ccc(C)cc3C)c(-c3ccc(C)o3)c2c1N	inconclusive [inhibitor, single point]	
Cc1ccc(-n2ncc3c(N4CCN(C)CC4)ncnc32)cc1C	inconclusive [inhibitor, single point]	
Cc1ccc2nc(CSc3nnc(NC(=O)C(C)C)s3)cc(=O)n2c1	inconclusive [inhibitor, single point]	
CCOc1ccc(-c2cc3c(=O)n(Cc4nc(-c5ccc(OCC)c(OC)c5)oc4C)ccn3n2)cc1Cl		inactive: -2.32%
CCc1cccc(NC(=O)C2CCCN(c3ncnc4c3nc3n4CCCCC3)C2)c1 (configuration not stated)	inconclusive [inhibitor, single point]	
Cc1cccc2c(=O)cc(CSc3ccccc3NC(=O)c3cccc(Cl)c3)[nH]c12	inconclusive [inhibitor, single point]	
CC(=O)N1Cc2[nH]c3ccccc3c2CC1C(=O)O (configuration not stated)		inactive: 11.1%
CC1(C)C2([N+](=O)[O-])CN3CC1([N+](=O)[O-])CN(C2)C3c1ccc(O)c(O)c1 (configuration not stated)	inconclusive [inhibitor, single point]	
CC1C(=O)N2CCCc3cc(NC(=O)C(=O)NCCc4ccccc4)cc1c32 (configuration not stated)	inconclusive [inhibitor, single point]	
CCNS(=O)(=O)c1ccc(NC(=O)c2cncc(Br)c2)cc1		inconclusive: -31.9% [inhibitor]
Clc1ccc(C2Nc3cccc4cccc(c34)N2)cc1Cl	inconclusive [inhibitor, single point]	
CCOC(=O)C1CCCN(C(=O)C(CCSC)NC(=O)COc2ccccc2)C1 (configuration not stated)		inactive: -20.7%
CSc1ccc(C2c3c(-c4ccccc4O)n[nH]c3C(=O)N2Cc2ccncc2)cc1 (configuration not stated)	active: 18.4 µM	
CC(=O)Nc1nc(C)c(Oc2ccc(C)cc2)c(=O)[nH]1		inactive: -1.81%
C=CCn1c(O)c(C2=c3ccccc3=NC2=O)sc1=Nc1ccc(O)cc1	inconclusive [inhibitor, single point]	
CCC(=NCCc1c(C)[nH]c2ccc(OC(F)(F)F)cc12)C1=C(O)CC(c2ccccc2)CC1=O (configuration not stated)	active: 5.8 µM	
Cc1cccc(C(=O)NCCc2nc3ccccc3n2CCC(C)C)c1	inconclusive [inhibitor, single point]	
Cc1ccc(NC(=O)CCC(=O)NNC(=O)NC2CCCCC2)c(C)c1		inactive: 3.36%
COc1ccc(C(=O)NCCc2ccccc2F)cc1OC1CCN(C(C)=O)CC1		inactive: -20.1%
Oc1c(Br)cc(Br)cc1C=NCc1ccc(F)cc1		inconclusive: -36.8% [inhibitor]
Cc1cc2c([nH]c3ccccc32)c(C)n1		inactive: -29.2%
CC(=O)Nc1nc(SCC(=O)NCc2ccc(F)cc2)[nH]c(=O)c1NC(=O)c1cccs1		inactive: 2.15%
O=C(CN1C(=O)c2ccccc2S1(=O)=O)NC1CCCC1		inactive: -0.433%
COc1ccccc1CNc1cc(-c2ccccc2Cl)ncn1	active: 14.6 µM	

Structure (SMILES)	Potency	activity change, negative = growth inhibition
COc1ccc(CCNC(=O)/C=C/c2cc(OC)c(OC)c(OC)c2)cc1OC	inconclusive [inhibitor, single point]	
COCCN(C(=O)c1cccc(N2C(=O)CCC2=O)c1)c1nc(-c2ccc([N+](=O)[O-])cc2)cs1	active: 20.6 µM	
N#Cc1ccc(OCC(=O)Nc2ccc3[nH]c(=O)[nH]c3c2)cc1		inactive: -22.1%
CN(c1ccc(C(=O)N2CCCCC2)cc1)S(=O)(=O)c1cccs1	inconclusive [inhibitor, single point]	
COc1cccc(Cn2c(=O)c(CCc3ccccc3)nc3cnc(OC)nc32)c1	active: 23.1 µM	
CCc1ccc(-n2nc(C)c3c(C)cc(=O)n(CC(=O)Nc4cc(Cl)ccc4OC)c32)cc1		inactive: -18.7%
CC(C)C1=CC2=CC[C@@H]3[C@](C)(CCC[C@@]3(C)C(=O)O)[C@H]2CC1		inactive: -5.32%
CC(C)Cc1ccc(C(C)C(N)=Nc2ccc(O)cc2)cc1 (configuration not stated)	active: 16.4 µM	
O=C(c1ccco1)N1CCN(C/C=C/c2ccccc2)CC1	inconclusive [inhibitor, full curve, poor fit]	
COc1cccc(-c2cncnc2Nc2ccccc2)c1	inconclusive [inhibitor, single point]	
COC(=O)Cn1c(CCS(=O)(=O)c2ccc(C)cc2)nc2ccccc21	inconclusive [inhibitor, single point]	
Cc1ccc2nc(NC(=O)c3ccco3)sc2c1	active: 8.2 µM	
O=C(O)c1ccccc1/C=N/Nc1ccc(S(=O)(=O)N2CCOCC2)cc1[N+](=O)[O-]		inactive: 15.8%
CCCCCOc1ccc(/C=C/C(=O)NCCc2nc3ccccc3[nH]2)cc1OC	active: 9.2 µM	
CC1=NN(Cc2ccccc2)C(=O)C1C(c1ccc(Cl)cc1)C(C#N)C#N (configuration not stated)	active: 10.3 µM	
O=c1c2sc3ccccc3c2n(Cc2cccc(Cl)c2)c(=O)n1Cc1ccccc1	inconclusive [inhibitor, partial curve, poor fit]	
S=C(NCCc1ccccc1)N1CCN(C2CCCCC2)CC1	inconclusive [inhibitor, single point]	
CCN(CC)S(=O)(=O)c1ccc(N2CCCC2)c(NC(=O)Cc2cc(OC)c(OC)c(OC)c2)c1		inactive: -23.3%
Cc1cc(N2CCN(C(C(=O)NC3CCCC3)c3ccc(-c4ccccc4)cc3)CC2)c2ccccc2n1 (configuration not stated)	active: 8.2 µM	
COCc1cc(C)nc(NC2CC(C)(C)NC(C)(C)C2)c1C#N		inactive: 4.6%
COc1ccc(-n2ncc3c(NC(C)C)ncnc32)cc1	inconclusive [inhibitor, single point]	
COc1ccc(S(=O)(=O)Nc2cccc(-c3ccc(N4CCCCCC4)nn3)c2)cc1OC	inconclusive [inhibitor, single point]	
N#CC1CC(c2ccc([N+](=O)[O-])cc2)=NN1c1ccc([N+](=O)[O-])cc1 (configuration not stated)		inactive: -13%
C=CCn1c(N)c(C(=O)OCC(C)C)c2nc3ccccc3nc21	inconclusive [inhibitor, single point]	

Structure (SMILES)	Potency	activity change, negative = growth inhibition
COc1ccccc1NC(=O)COc1ccc(C(=O)NCc2ccccc2)cc1OC	inconclusive [inhibitor, single point]	
CC(=O)Nc1ccc(S(=O)(=O)NCCc2csc3nc(-c4ccc(Cl)cc4)nn23)cc1	active: 16.4 µM	
C=CCNC(=O)c1cc(Cl)cc(Cl)c1	inconclusive [inhibitor, single point]	
O=C(N[C@H]1CC[C@H](CCNS(=O)(=O)c2ccc(Cl)cc2)O[C@@H]1CO)c1cccc(F)c1	inconclusive [inhibitor, single point]	
COC(=O)c1c(NC(=O)CCl)sc(C(=O)N2CCOCC2)c1C	active: 5.17 µM	
O=[N+]([O-])c1ccc(NC2CCCC2)cc1		inactive: -14.5%
COC(=O)[C@@]1(Cc2ccccc2)[C@H]2C(=O)N(C)C(=O)[C@H]2[C@H]2CN=C(SCc3ccc(C#N)cc3)N21	inconclusive [inhibitor, single point]	
CC(=O)Nc1cc2c(cc1C(=O)c1ccccc1)OCCO2	inconclusive [inhibitor, full curve, poor fit]	
Cc1ccc(F)c(S(=O)(=O)NC(=O)C2(C)CCN2C(=O)Cc2ccc(Cl)cc2Cl)c1 (configuration not stated)		inactive: 2.28%
O=C(COc1ccccc1[N+](=O)[O-])Nc1ccc(NC(=O)c2cc3ccccc3o2)cc1	inconclusive [inhibitor, partial curve]	
O=C(CSc1nnc(-c2cccs2)n1Cc1ccccc1)NCc1ccc2c(c1)OCO2	inconclusive [inhibitor, single point]	
COc1cccc(CNC(=O)c2c(OC)cc(=O)n3c2CCN(C(=O)c2cc(F)cc(F)c2)CC3)c1		inactive: -13.9%
CN1CCN(C2=CC3=CC(=C(C#N)C#N)CCC3CC2)CC1 (configuration not stated)	inconclusive [inhibitor, single point]	
Cc1cccc(OC(C)C(=O)N2CCc3ccccc3C2)c1 (configuration not stated)	inconclusive [inhibitor, full curve, poor fit]	
O=C(NCc1ccc(Cl)cc1)c1cc(=O)nc2sc(-c3ccccc3)nn12	inconclusive [inhibitor, partial curve]	
C(=C\c1ccnc2ccccc12)/c1ccc(-[n+]2cc[n+](-c3ccc(/C=C/c4ccnc5ccccc45)cc3)cc2)cc1	active: 5.01 µM	
COc1cccc(-c2cc3c(-n4cccc4)ncnc3o2)c1	inconclusive [inhibitor, single point]	
N#CC1=C(N)Oc2c(ccc3cccnc23)C1c1ccccc1 (configuration not stated)	active: 4.11 µM	
O=C(Cc1ccc([N+](=O)[O-])cc1)Nc1ccc(C(=O)N2CCOCC2)cc1		inactive: -10.5%
O=C(NCCc1ccccc1)C1CCN(C2CCN(C(=O)CC3=CCCCC3)CC2)CC1		inconclusive: -31.3% [inhibitor]
Cc1ccc(C(=O)OC(C)C(=O)NC2CCCCC2)cc1S(=O)(=O)N1CCCCC1 (configuration not stated)	inconclusive [inhibitor, single point]	
O=C(Cc1coc(-c2ccc(F)cc2)n1)NCc1ccccc1	inconclusive [inhibitor, single point]	
CCCn1c(=O)c2c(ncn2C)n(CCC)c1=O	active: 3.66 µM	
Cc1ccc(C)c(N2CCN(C(c3ccncc3)c3nnnn3Cc3ccccc3)CC2)c1 (configuration not stated)	inconclusive [inhibitor, single point]	
